In the supplement of paper PMC11417369:
± gives the standard deviation of the averaged measurements. The list shows a part of the results.

Tested on: PfAP2-I AP2 domain 3 (GST-tagged)
Experiment: gcPBM binding intensity (ln(normalized median fluorescence intensity)); higher = stronger DNA binding
Outline: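 GST-fused DNA-binding domains of P. falciparum, expressed in E. coli, were applied at about 25 μg on average for 1 h to an Agilent 4 × 180k array of primer-extended double-stranded 36-bp intergenic genomic probes and negative controls. Binding intensity is the highest Masliner-normalised natural-log median intensity across replicate spots of either probe orientation, measured with Alexa488 anti-GST antibody and a 488 nm scan.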

| Sequence | gcPBM binding intensity (ln) |
| --- | --- |
| AAAAAGAATGTGAACACACACATTGAATCTAATTTA [CACACA_site6711] | 7.31 ± 0.55 |
| GATAATTATGGACACACACACACACCCACAACTAAA [CACACA_site8824] | 8.3 ± 0.38 |
| ACATATAATATATATATATATATATATATATATAAT [GTGCAC_negctrl_site648] | 8.16 ± 0.33 |
| TATATAAAAAATTCAATACACACCATATATAAATAT [CACACA_site3987] | 7.68 ± 0.4 |
| AGATGATATATTATATATCCTTTTAATAAATGTAAT [CACACA_negctrl_site730] | 7.4 ± 0.4 |
| TAATAGAATATGATGGTGCAGCAGTCTTATTTTTCA | 9.31 ± 0.13 |
| TTTCTTTCTTCACATATATATATATATATATTTATA [TGCATGCA_negctrl_site341] | 8.1 ± 0.69 |
| TACATATAATATATTGCACACGTCAGAATAATATAG [CACACA_site1744] | 10.1 ± 0.7 |
| CCCCCCCACGGACACACACACATACATACCACATAT [CACACA_site5303] | 10.2 ± 0.26 |
| TTTTATAATATTTAAAGTACATTCTAAAAATATAAT [XGTACX_site8033] | 7.49 ± 0.47 |
| TTAGCCATTAATTCTCTACACACCTTTATGTTATTT [CACACA_site9212] | 7.89 ± 0.76 |
| TATAATTATTTTTTTCTAAATATTATAAGGTATTCA [GTGCAC_negctrl_site205] | 7.18 ± 0.33 |
| ATTTTTTTTTTTTTTTTTTTTTTTTAGATTAAGAAA [CACACA_negctrl_site1272] | 7.58 ± 0.48 |
| AAATAAAATAAAATAAAATAAAATTCTTTGATACCT [TGCATGCA_negctrl_site604] | 7.3 ± 0.6 |
| AATTTTAAAAATATAACACACATATATAAAATATAT [CACACA_site3610] | 7.71 ± 0.29 |
| AATGAAGAAAAAAAAAGTACATTATTTTTAAAACTT [XGTACX_site563] | 7.78 ± 0.43 |
| TTTTAAATAAAATATTGTACATTAAAATTGTAATAT [XGTACX_site2128] | 7.46 ± 0.42 |
| ATTATAAATATGTATATACACACTTTTAATATTCAT [CACACA_site9367] | 7.91 ± 0.49 |
| AAGCAAACATATTAATGTACACACACCCACACACAA [XGTACX_site5806] | 7.99 ± 0.5 |
| TAAGATAAATGATAAAGTACTTTTTTTTTTTAAATA [XGTACX_site2326] | 7.36 ± 0.16 |
| ATTTATAAAATTAATAGTACATATATTTATATATAT [XGTACX_site4173] | 8.11 ± 0.38 |
| TATTGCACAAAATAATTTTATTATACTTTATGTTAG [TGCATGCA_negctrl_site574] | 8.21 ± 0.25 |

| Sequence | gcPBM binding intensity (ln) |
| --- | --- |
| CAAAAATAAACTATAGTACACACTTATTATTATGAA [CACACA_site2702] | 7.7 ± 0.36 |
| ATTTGGCATAGACACACACACACACGCACGCACATA [CACACA_site6424] | 8.62 ± 0.66 |
| TATGTTCATCATAGCACACATATATAAATTACAACA [CACACA_site3533] | 7.95 ± 0.48 |
| ATTGTAATCATATGAAGTACTAATATATATTTTAAT [XGTACX_site8350] | 7.68 ± 0.54 |
| TTTTTATGTAGAATTTTTTTATTTTTTCAAAATGGA [CACACA_negctrl_site166] | 7.33 ± 0.73 |
| TGTATTACGAAAAAATGTACAGAAAAAGAAACAAAA [XGTACX_site2777] | 8.24 ± 0.6 |
| TGGGATAGATCATTTACACACACAAAAAAAAAAAAA [CACACA_site2140] | 8 ± 0.58 |
| TTTGTCATAAGCAATGCATGTAAGTTTCTGACATTA [TGCATGCA_site1007] | 7.45 ± 0.55 |
| AACAACTATTAATTTACACACATGTATTTATTTTAC [CACACA_site5683] | 8.24 ± 0.57 |
| TCTTATATATTTATTTGTACATATATATATATATAT [XGTACX_site7214] | 9.11 ± 0.73 |
| ATAAAAAAATAAAACACACACATATATATTATATAT [CACACA_site2810] | 7.73 ± 0.44 |
| TAAATAAAAAAACACACACACATATATATATATATA [CACACA_site2269] | 9.62 ± 0.3 |
| AATGCATTGATTGCATTCAAAAAAAAAAAAAAAAAA [XGTACX_negctrl_site597] | 8.31 ± 0.57 |
| AATAAGATATCTACAACACACATTTAATTTTTTTTT [CACACA_site1641] | 7.71 ± 0.5 |
| AATCATAAAGAACATATAATATATATATATATATAT [CACACA_negctrl_site316] | 9.19 ± 0.67 |
| AATTGTCAGAGAATATGTACTTAAGTATTTATTGTT [XGTACX_site1947] | 7.78 ± 0.39 |
| GTCAACAAGAATTAAGTGCATAATTTTTTATTAAAT [GTGCAC_site9492] | 10.3 ± 0.18 |
| AAATTTTATGTATAATGTACACATAAATTTTTCTTT [XGTACX_site7266] | 7.66 ± 0.39 |
| ATACAGATAGGATGCACACATAATTCAAATACAATA [CACACA_site4531] | 8.33 ± 0.37 |
| ATATAATAATAATATTGTACAATAAAAAATATATAT [XGTACX_site7350] | 7.84 ± 0.47 |
| ATGTCAAGAACTGAACGTACAAACTTTGTAATATTG [XGTACX_site8754] | 7.72 ± 0.45 |
| AGTAATAATCGGCATGCATGTCAGTGGTAGTATATA [TGCATGCA_site312] | 7.96 ± 0.6 |
